Laboratory results from the supplement of paper PMC3334620.
Whole data set: some 33,000 sequences, median “E-score (-0.5 to 0.5)” near -0.056, cut for the highest 2% near 0.38. This is one part of the list.

Each sequence was assayed against Stb4 (UniProt P50104) (assay: PBM E-score (8-mer binding enrichment) (E-score (-0.5 to 0.5)); higher = stronger / more preferred TF binding; most listed sequences are background and not binding sites). Details: protein concentration: 200 nM; construct: GST-DNA-binding domain.
Summary of the method: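 Full-length yeast transcription factors or their DNA-binding domains, GST-tagged and expressed with PURExpress, were applied at about 100-200 nM to universal all-10-mer Agilent arrays. These arrays had been made double-stranded by primer extension on fresh or once-stripped slides. Detection used fluorescent anti-GST, normalisation used masliner, and E-scores for ungapped eight-base words pooled with reverse complements came from the Universal PBM Analysis Suite.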

Going from GTATGTCA to GAGCAGCC, the “PBM E-score” value rises from -0.0522 to 0.11.

Going from AGCCGTAA to CCTGCTAA, the “PBM E-score” value falls from 0.0616 to -0.132.

Compared with GCGCACCA, TCTAAACA is lower in “PBM E-score” value: -0.0337 for the first, -0.0967 for the second.

First: AAGAGGAT
Second: ACAAGATC
The “PBM E-score” value of the first is lower: -0.162 for the first, -0.0852 for the second.

First: CTATGCAG
Second: AAAATTGT
The “PBM E-score” value of the first is lower: -0.145 for the first, 0.131 for the second.

Going from ATGCGACG to AGTCATTC, the “PBM E-score” value falls from 0.0175 to -0.0977.

Compared with AGGAACAC, CTTACGAA is lower in “PBM E-score” value: 0.0248 for the first, -0.074 for the second.

Going from GAGGGCAA to TACTGGCA, the “PBM E-score” value falls from 0.00071 to -0.0509.

First: AACCTACA
Second: CACCTAGA
The “PBM E-score” value of the first is higher: -0.0052 for the first, -0.269 for the second.

Compared with TACTCGGA, CCCGGGAG is lower in “PBM E-score” value: 0.409 for the first, 0.307 for the second.

Going from AATAGTGC to CAGTACAC, the “PBM E-score” value falls from 0.0314 to -0.118.

First: CTACATCC
Second: CATAAGTC
The “PBM E-score” value of the first is higher: 0.171 for the first, -0.129 for the second.

Compared with CCCCAACC, GGACGTCC is higher in “PBM E-score” value: -0.134 for the first, -0.0734 for the second.

First: GACGTGCC
Second: TCCCTGCA
The “PBM E-score” value of the first is higher: 0.0166 for the first, -0.0715 for the second.

Going from GTTGAGAA to ATTAACGG, the “PBM E-score” value rises from -0.248 to 0.13.

Going from ATGGCCTA to AGGGGGTC, the “PBM E-score” value rises from -0.195 to -0.178.

Compared with GACCAATC, ACTGCTCT is lower in “PBM E-score” value: -0.0806 for the first, -0.182 for the second.

Compared with GTACTGCA, GTGTCAGA is lower in “PBM E-score” value: -0.042 for the first, -0.111 for the second.

Compared with AGCGGTGA, AGTAATAA is lower in “PBM E-score” value: -0.0416 for the first, -0.214 for the second.

Compared with ACTAAGAG, AGGCCGTA is higher in “PBM E-score” value: -0.134 for the first, -0.023 for the second.

First: CGCATGCA
Second: GAAATGCC
The “PBM E-score” value of the first is lower: 0.076 for the first, 0.161 for the second.

First: AGAAAGAC
Second: CAGAACAG
The “PBM E-score” value of the first is higher: 0.1 for the first, -0.14 for the second.

Going from GATTTCGA to ATTAAAAT, the “PBM E-score” value falls from 0.0573 to 0.057.

Compared with TAATAAGA, CTTATTCA is higher in “PBM E-score” value: -0.175 for the first, -0.044 for the second.

Compared with CGGGACTC, ATCCCTGG is lower in “PBM E-score” value: 0.263 for the first, -0.212 for the second.

First: AATAACTA
Second: CGTCGAGA
The “PBM E-score” value of the first is higher: -0.15 for the first, -0.246 for the second.

Compared with CGGAGTAA, GACGTGGC is lower in “PBM E-score” value: 0.283 for the first, -0.187 for the second.

First: AGAAATAT
Second: CAAGTAGG
The “PBM E-score” value of the first is higher: 0.079 for the first, -0.142 for the second.

Going from GACCTCTA to AAACACGC, the “PBM E-score” value rises from -0.0855 to -0.0563.

Going from ACGTCGCG to GTCATAAA, the “PBM E-score” value falls from -0.0235 to -0.117.

Going from GACGATCA to AACATCGC, the “PBM E-score” value rises from -0.234 to -0.123.

First: GCTTTGGA
Second: AATTGGAT
The “PBM E-score” value of the first is higher: 0.0278 for the first, -0.12 for the second.

First: CAACTCCA
Second: ACCAGGCG
The “PBM E-score” value of the first is higher: -0.0676 for the first, -0.159 for the second.

First: GAAGTCTA
Second: ATGCAAGA
The “PBM E-score” value of the first is higher: -0.124 for the first, -0.16 for the second.

Going from AGGATAAT to AGCATCGA, the “PBM E-score” value falls from -0.0697 to -0.0864.

Going from AACATCTT to TGTGCGAA, the “PBM E-score” value falls from 0.0147 to -0.278.

First: AAAACATT
Second: CCATTAAG
The “PBM E-score” value of the first is lower: -0.21 for the first, -0.161 for the second.

First: GCAATGAC
Second: TCCCACAA
The “PBM E-score” value of the first is lower: -0.281 for the first, -0.0625 for the second.

First: CGGTAGTC
Second: CAGTGCCC
The “PBM E-score” value of the first is higher: 0.212 for the first, 0.00019 for the second.

Going from AATACTCC to CTTATCCC, the “PBM E-score” value falls from 0.101 to 0.0732.

Going from CGTCGGGC to GAACTAAC, the “PBM E-score” value falls from 0.172 to 0.0966.

Going from GCCTCTAA to CGATAACC, the “PBM E-score” value rises from -0.13 to 0.213.

First: CCTTTCCA
Second: ATCCATCA
The “PBM E-score” value of the first is higher: -0.0672 for the first, -0.0756 for the second.

First: GGTCAGAC
Second: CTGCCCGC
The “PBM E-score” value of the first is lower: -0.287 for the first, 0.0182 for the second.

First: GCACGGGA
Second: GACCTTTA
The “PBM E-score” value of the first is higher: 0.305 for the first, -0.0636 for the second.

Going from GAAGCGTA to CGGTTATA, the “PBM E-score” value rises from 0.123 to 0.295.

Compared with AACTGGAT, AATCTATC is higher in “PBM E-score” value: -0.0514 for the first, -0.0505 for the second.

Going from ACTGAGGC to CCTAGGAA, the “PBM E-score” value falls from 0.062 to -0.131.

Compared with ATAAAGTG, CTGAAGCC is lower in “PBM E-score” value: 0.0586 for the first, -0.0635 for the second.

Compared with AATGGAAT, CCTTTACG is lower in “PBM E-score” value: 0.0324 for the first, -0.0758 for the second.

Going from GATGTCTA to CAGTACGC, the “PBM E-score” value rises from -0.17 to -0.13.

First: CTGACTCA
Second: ATAGTTTC
The “PBM E-score” value of the first is lower: -0.323 for the first, -0.005 for the second.

Going from ACTAGATA to CAATGTGG, the “PBM E-score” value falls from -0.13 to -0.134.

Going from ATTTTGTC to GGCGAGAC, the “PBM E-score” value falls from 0.0874 to -0.245.

First: CAGTCGAA
Second: AAGTTATT
The “PBM E-score” value of the first is lower: -0.178 for the first, -0.0763 for the second.

Going from GGCCATCA to ACCTTCAT, the “PBM E-score” value falls from -0.11 to -0.111.

Going from ACGCTAAA to GATCTGAA, the “PBM E-score” value rises from -0.237 to -0.0769.

Compared with GGCCCCCA, ACGACCCC is higher in “PBM E-score” value: -0.225 for the first, -0.139 for the second.

First: CTACTAGC
Second: CAGATGAC
The “PBM E-score” value of the first is higher: 0.111 for the first, -0.202 for the second.

Going from ACAACAGT to AACGGCAT, the “PBM E-score” value rises from -0.0877 to 0.232.

Going from ACTCAAAC to GACTTACC, the “PBM E-score” value rises from -0.118 to 0.168.

Compared with CTCAGCGC, AACAATTG is lower in “PBM E-score” value: -0.213 for the first, -0.23 for the second.

First: GGGGGGTA
Second: CGCACAAC
The “PBM E-score” value of the first is higher: -0.0241 for the first, -0.22 for the second.

Compared with TCTTCACA, ATCTCCGA is higher in “PBM E-score” value: -0.119 for the first, 0.396 for the second.

Compared with GTGATATA, CACCTAGC is lower in “PBM E-score” value: -0.0589 for the first, -0.119 for the second.

Compared with ACTGAGTC, ATGAAGCC is higher in “PBM E-score” value: -0.0516 for the first, 0.169 for the second.

Going from AGGAATTG to GGCCGCGA, the “PBM E-score” value rises from -0.132 to -0.0905.

First: ATCCCGGG
Second: CCGAGTAG
The “PBM E-score” value of the first is lower: 0.355 for the first, 0.391 for the second.

Going from CAGCTGAA to GATGCTGA, the “PBM E-score” value falls from -0.147 to -0.176.

Compared with ACGGAAAG, GACGCTAC is lower in “PBM E-score” value: 0.374 for the first, 0.0592 for the second.

Going from ACTAACCT to CTATACCC, the “PBM E-score” value rises from -0.115 to 0.149.

Compared with CTTACCAA, TGTCACAA is higher in “PBM E-score” value: -0.245 for the first, 0.0307 for the second.

First: CCAACACG
Second: GCCTGTCC
The “PBM E-score” value of the first is lower: -0.104 for the first, -0.0763 for the second.

First: CGGACGAG
Second: GTACCGCA
The “PBM E-score” value of the first is lower: 0.111 for the first, 0.13 for the second.

Going from AATGAATA to ACGCCCGG, the “PBM E-score” value rises from -0.165 to 0.181.

First: GGGTTTTA
Second: CGGGGCTA
The “PBM E-score” value of the first is lower: 0.0725 for the first, 0.138 for the second.

Going from AAGTCTTG to CTTTACTC, the “PBM E-score” value falls from -0.0583 to -0.059.

Going from AGTACCCA to TCCTTAAA, the “PBM E-score” value falls from -0.0907 to -0.428.

Compared with CTGCTCCC, ATAAAGTA is lower in “PBM E-score” value: 0.0152 for the first, -0.0158 for the second.

Compared with AAAAGCTA, CACCCTCA is lower in “PBM E-score” value: -0.0736 for the first, -0.241 for the second.

Going from GATCAACA to CGTGAGAC, the “PBM E-score” value rises from -0.18 to -0.111.

First: AAACCTGG
Second: CACGAGCA
The “PBM E-score” value of the first is higher: -0.167 for the first, -0.18 for the second.

First: ATCCGCGC
Second: TCCGCAGA
The “PBM E-score” value of the first is higher: 0.332 for the first, 0.0922 for the second.

Compared with AATCTCGG, CTCCAAGC is lower in “PBM E-score” value: 0.434 for the first, -0.215 for the second.

Compared with GGGCGCGA, AGAGGAAG is lower in “PBM E-score” value: 0.22 for the first, -0.202 for the second.

Going from CATACATG to ATGTTACG, the “PBM E-score” value rises from -0.254 to -0.124.
